Source: the BET-seq Pho4 binding data (Le et al. 2018)
The list shows a part of the results. These are noisy estimates, calculated here from bound and input reads.

molecular target: T1, Pho4 (S. cerevisiae) (UniProt P07270); assay: relative binding free energy (BET-seq); higher = weaker binding; conditions: reference: library average
T1 sequence: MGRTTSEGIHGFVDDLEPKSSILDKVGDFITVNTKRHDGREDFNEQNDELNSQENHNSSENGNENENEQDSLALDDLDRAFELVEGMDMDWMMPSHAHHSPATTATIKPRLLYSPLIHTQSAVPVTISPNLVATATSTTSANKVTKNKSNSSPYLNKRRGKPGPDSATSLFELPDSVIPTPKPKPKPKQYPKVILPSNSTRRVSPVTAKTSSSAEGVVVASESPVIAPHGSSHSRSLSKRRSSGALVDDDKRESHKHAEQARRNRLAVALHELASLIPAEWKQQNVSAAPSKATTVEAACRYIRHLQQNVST

Sequence | relative binding free energy
TGCATCACGTGGTGGT | 0.16 kcal/mol
TATAGCACGTGCGCGG | -0.27 kcal/mol
ATGTTCACGTGGGACA | 0.17 kcal/mol
GGGGCCACGTGCGTTA | -0.12 kcal/mol
GAGTTCACGTGATGGC | 0.39 kcal/mol
GTACGCACGTGTATTT | -0.02 kcal/mol
GTCATCACGTGAGGTG | 0.43 kcal/mol
AGGGTCACGTGTTATC | 0.22 kcal/mol
CTAATCACGTGTAGTT | 0.08 kcal/mol
CCGGGCACGTGGGTGA | -0.18 kcal/mol
GTTGACACGTGCGGGG | -0.04 kcal/mol
TGGTACACGTGGGATA | 0.1 kcal/mol
GAGTTCACGTGGCTAG | 0.47 kcal/mol
TAATTCACGTGTAGGG | 0.19 kcal/mol
TGTTACACGTGATTTT | 0.2 kcal/mol
TTGGACACGTGAGATT | 0.29 kcal/mol
CTGTGCACGTGTGGCG | 0 kcal/mol
TGTGACACGTGAAGGA | 0.3 kcal/mol
ATTTGCACGTGTCTGA | -0.05 kcal/mol
TTTGTCACGTGGGATA | 0.02 kcal/mol
TTTGTCACGTGTTAAT | 0.21 kcal/mol

Sequence | relative binding free energy
TTAAACACGTGTGGCA | 0.06 kcal/mol
AGAGGCACGTGTTGAA | 0.01 kcal/mol
CTGGTCACGTGTTGAG | 0.09 kcal/mol
TGGGTCACGTGTTAGC | 0.21 kcal/mol
AGTGGCACGTGTAAGT | 0.02 kcal/mol
TCATACACGTGGGATT | 0.07 kcal/mol
TGGTTCACGTGAAGAG | 0.4 kcal/mol
CTCGGCACGTGGGGAT | -0.24 kcal/mol
ACTTGCACGTGGTTGT | -0.18 kcal/mol
GGGGGCACGTGAATAC | 0.3 kcal/mol
TTATGCACGTGTATCT | -0.15 kcal/mol
CTTGTCACGTGAAGGA | 0.26 kcal/mol
ATTAGCACGTGGAGTA | -0.05 kcal/mol
TCGTTCACGTGGCATG | 0.12 kcal/mol
CAGGACACGTGGGATT | 0.01 kcal/mol
AGTGGCACGTGGTCAT | -0.21 kcal/mol
GGATGCACGTGTTAGG | 0.14 kcal/mol
AACTGCACGTGGGGAG | -0.16 kcal/mol
GTTCGCACGTGTTATA | -0.04 kcal/mol
GGAAGCACGTGTGTAA | -0.2 kcal/mol
ATACGCACGTGGGTAG | -0.13 kcal/mol

Sequence | relative binding free energy
AGTGACACGTGAGTAG | 0.15 kcal/mol
TGTGACACGTGTTGGA | 0.11 kcal/mol
TGTCTCACGTGAAGCG | 0.39 kcal/mol
GGTCTCACGTGCGTGG | 0.13 kcal/mol
GGTTTCACGTGGCTTA | 0.28 kcal/mol
ATGTCCACGTGTTGTT | 0.03 kcal/mol
ATGTTCACGTGCATGA | 0.16 kcal/mol
CTTGGCACGTGACTGG | 0.02 kcal/mol
TGATACACGTGATGGT | 0.24 kcal/mol
TGTCCCACGTGGAGTG | -0.07 kcal/mol
TTTCTCACGTGGTGGG | 0.38 kcal/mol
CGTGGCACGTGAACGT | 0.09 kcal/mol
TTACGCACGTGTAGGG | -0.02 kcal/mol
TTAGACACGTGTCGGG | 0.03 kcal/mol
ATTGACACGTGGTTAA | -0.02 kcal/mol
AAATGCACGTGGGTTT | -0.15 kcal/mol
TGAGACACGTGGACGG | -0.02 kcal/mol
GAAGGCACGTGCGAGG | -0.27 kcal/mol
ATGAGCACGTGTAGGT | -0.15 kcal/mol
GTCCGCACGTGTGTTT | 0.13 kcal/mol
ATATTCACGTGAGAGG | 0.23 kcal/mol
